Laboratory results: the supplement of paper PMC3334620
Whole data set: some 33,000 sequences, median “E-score (-0.5 to 0.5)” near -0.032, cut for the highest 2% near 0.36. This is one part of the list.

These sequences were tested against T1, Sko1 (UniProt Q02100) (assay: PBM E-score (8-mer binding enrichment) (E-score (-0.5 to 0.5)); higher = stronger / more preferred TF binding; most listed sequences are background and not binding sites). Settings: protein concentration: 200 nM; construct: GST-full length.
T1 sequence: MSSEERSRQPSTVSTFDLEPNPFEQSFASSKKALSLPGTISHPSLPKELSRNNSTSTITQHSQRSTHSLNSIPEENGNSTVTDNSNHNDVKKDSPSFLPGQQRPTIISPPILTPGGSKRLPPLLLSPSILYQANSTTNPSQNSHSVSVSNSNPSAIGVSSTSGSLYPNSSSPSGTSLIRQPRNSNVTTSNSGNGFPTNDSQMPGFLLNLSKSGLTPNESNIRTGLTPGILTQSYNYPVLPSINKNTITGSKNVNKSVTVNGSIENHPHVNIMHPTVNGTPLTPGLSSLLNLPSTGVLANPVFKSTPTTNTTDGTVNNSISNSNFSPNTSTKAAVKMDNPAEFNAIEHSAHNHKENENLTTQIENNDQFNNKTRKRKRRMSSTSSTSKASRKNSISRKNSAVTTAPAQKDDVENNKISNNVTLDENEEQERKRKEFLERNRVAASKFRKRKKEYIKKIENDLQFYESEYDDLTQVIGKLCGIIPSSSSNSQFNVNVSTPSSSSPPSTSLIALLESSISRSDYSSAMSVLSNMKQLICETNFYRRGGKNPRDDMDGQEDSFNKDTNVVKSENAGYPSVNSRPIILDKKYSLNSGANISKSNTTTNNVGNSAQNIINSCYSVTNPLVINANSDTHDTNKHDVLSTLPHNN
Protocol: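 Universal 'all 10-mer' protein binding microarrays (Agilent AMADID 015681) probed with GST-tagged S. cerevisiae TFs (full-length or DBD) made by in vitro transcription/translation (PURExpress), about 100-200 nM. Bound TF was detected with fluorescent anti-GST. Each ungapped 8-mer (which stands for itself and its reverse complement) is scored by the PBM enrichment score (E-score), a modified Wilcoxon-Mann-Whitney statistic from -0.5 to +0.5, computed with the Universal PBM Analysis Suite. Scale: above 0.35 generally sequence-specific binding.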
In the case of AGACCGAC, the “PBM E-score” value is reported as -0.0155. With ACGTTATC the “PBM E-score” value was 0.413. For AGCACTGA, the “PBM E-score” value was -0.0783. With AACAGCCT the “PBM E-score” value was -0.186. With ATCCTGAC the “PBM E-score” value was 0.0973. CCCAGGGA was tested, and the “PBM E-score” value was -0.326. For TGGAGTAA, the “PBM E-score” value was 0.111. For CGAAATCC, the “PBM E-score” value was 0.0256. For CGCTAACA, the “PBM E-score” value was 0.0733. With CGAGTATA the “PBM E-score” value was -0.0254. In the case of ACATATGC, the “PBM E-score” value is reported as 0.00575. In the case of TCTTGCAA, the “PBM E-score” value is reported as 0.0663. With ATATTTTA the “PBM E-score” value was 0.184. ATCCGACC was tested, and the “PBM E-score” value was 0.00665. With ATCAGTAG the “PBM E-score” value was 0.0419. With AGGTAAAG the “PBM E-score” value was 0.131. In the case of ACTGCGCA, the “PBM E-score” value is reported as 0.0898. For AATTACTG, the “PBM E-score” value was 0.0967. In the case of ACCCCATC, the “PBM E-score” value is reported as -0.171. With CATGGACC the “PBM E-score” value was -0.143. With ACAGTTGA the “PBM E-score” value was -0.054. In the case of CCCATAAC, the “PBM E-score” value is reported as -0.0669. AGTTTATA was tested, and the “PBM E-score” value was 0.178. For ATGGCGTC, the “PBM E-score” value was 0.392. With CGAATTAA the “PBM E-score” value was 0.191. For AAACGTGC, the “PBM E-score” value was 0.231. With AGCTTCCG the “PBM E-score” value was -0.156. In the case of CCATGTCG, the “PBM E-score” value is reported as 0.0932. With CCGGACCA the “PBM E-score” value was -0.127. ACAAGCCC was tested, and the “PBM E-score” value was -0.112. With ACTTGCGA the “PBM E-score” value was 0.0546. With AAGTATAT the “PBM E-score” value was 0.118. For ATTGATCC, the “PBM E-score” value was 0.0318. In the case of TAACGTTA, the “PBM E-score” value is reported as 0.302. TCGCGCGA was tested, and the “PBM E-score” value was 0.00443. In the case of AGAACTAG, the “PBM E-score” value is reported as -0.177. For CGAATACC, the “PBM E-score” value was -0.0967. AGATCCAA was tested, and the “PBM E-score” value was -0.133. CAAGTGCG was tested, and the “PBM E-score” value was 0.119. With GGGTCGAA the “PBM E-score” value was -0.21. In the case of CGCAGAAG, the “PBM E-score” value is reported as 0.151. For ATACCGGA, the “PBM E-score” value was -0.0679. In the case of AGGCCGGG, the “PBM E-score” value is reported as -0.396. With AGATCTCC the “PBM E-score” value was -0.267. With GCCTTGTA the “PBM E-score” value was -0.216. With CTATCGCA the “PBM E-score” value was -0.0882. For ATGTGACA, the “PBM E-score” value was 0.169. With CCCAATCA the “PBM E-score” value was -0.185. For CGTAGGTA, the “PBM E-score” value was 0.165. With AAACTCAC the “PBM E-score” value was 0.0991. With ACGACTGC the “PBM E-score” value was -0.125. In the case of GAGCCACA, the “PBM E-score” value is reported as -0.185. CGCCAAAG was tested, and the “PBM E-score” value was -0.208. With ATAGATTG the “PBM E-score” value was 0.0453. In the case of CTGTGCTA, the “PBM E-score” value is reported as -0.0875. For CATGCCTA, the “PBM E-score” value was -0.228. CCCTCGCC was tested, and the “PBM E-score” value was -0.241. TTGCCAAA was tested, and the “PBM E-score” value was -0.168. In the case of AACCCTGA, the “PBM E-score” value is reported as 0.0138. In the case of TACAAACA, the “PBM E-score” value is reported as 0.164. For CCGGCACC, the “PBM E-score” value was -0.269. For CTTATGCC, the “PBM E-score” value was -0.123. CACGCGCG was tested, and the “PBM E-score” value was 0.127. AACGCCAG was tested, and the “PBM E-score” value was -0.0689. With ATCGATTG the “PBM E-score” value was 0.213. In the case of GCAAGGGC, the “PBM E-score” value is reported as -0.184. CATCCCGG was tested, and the “PBM E-score” value was -0.325. ACCTGTAG was tested, and the “PBM E-score” value was -0.289. ACAAGAAG was tested, and the “PBM E-score” value was 0.0038. In the case of ATAAGAGG, the “PBM E-score” value is reported as -0.124. For GTGGCAGA, the “PBM E-score” value was -0.0257. ATGTGCCG was tested, and the “PBM E-score” value was -0.218. GAACATGA was tested, and the “PBM E-score” value was 0.025. CCGCTTAC was tested, and the “PBM E-score” value was -0.0682. CGAAATTA was tested, and the “PBM E-score” value was 0.275. For CTACCTGC, the “PBM E-score” value was -0.266. In the case of CACGACCA, the “PBM E-score” value is reported as 0.029. With ATCCGAGA the “PBM E-score” value was -0.0475. AGGTATAG was tested, and the “PBM E-score” value was -0.141. For CTGAACAC, the “PBM E-score” value was 0.133. In the case of AGCCATCC, the “PBM E-score” value is reported as -0.322. In the case of GCGTAGGA, the “PBM E-score” value is reported as 0.0517. For CACAGCCA, the “PBM E-score” value was -0.0637. In the case of AGCTGGGA, the “PBM E-score” value is reported as -0.198. In the case of GAGTACCC, the “PBM E-score” value is reported as -0.214. In the case of CGCCCAGC, the “PBM E-score” value is reported as -0.176.
